Consider eleven variants from the supplement of paper PMC12217912.

To fix the notation:
B1: TEV protease; numbered along this chain (parent)
chain: MGESLFKGPRDYNPISSSICHLTNESDGHTTSLYGIGFGPFIITNKHLFRRNNGTLVVQSLHGVFKVKDTTTLQQHLVDGRDMIIIRMPKDFPPFPQKLKFREPQREERICLVTTNFQTKSMSSMVSDTSCTFPSGDGIFWKHWIQTKDGQCGSPLVSTRDGFIVGIHSASNFTNTNNYFTSVPKNFMELLTNQEAQQWVSGWRLNADSVLWGGHKVFMVKPEEPFQPVKEATQL

The list shows a part of the results. Sequences were assembled here from the parent chain. Values near 0.05 are background.
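Also: Bxb1 expression induced with 0.2% (w/v) L-rhamnose at OD600 near 0.5, cultures sampled hourly, flipped fraction per protease–substrate barcode pair counted by paired-end Illumina sequencing.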

In the assay the parent is B1. Put plainly: raw area under fraction-flipped curve 0-4 h after induction (AUC4h, not background-subtracted), DNA-recorder readout of cleavage of the substrate (dimensionless); higher = more cleavage of the substrate by the protease variant. As to conditions: temperature: 34 °C; time window: 0-4 h after rhamnose induction.
Regarding MGESLFKGPRDYNPISSSICHLTNESDGHTTSLYGIGFGPFIITNKHLFRRNNGTLVVQSLHGVFKVKDTTTLQQHLVDGRDMIIIRMCKDFPPFPQKLKFREPQREERICLVTTNFQTKSMSSMVSDTSCTFPSGDGIFWKHWIQTKDGQCGSPLVSTRDGFIVGIHSASNFTNTNNYFTSVPKNFMELLTNQEAQQWVSGWRLNADSVLWGGHKVFMVKPEEPFQPVKEATQL [P89C], the “area with substrate ENLYFQH” value was 0.0714, the “area with substrate ENLYFQL” value worked out at 0.0516, the “area with substrate ENLYFQR” value worked out at 0.0579 and the “area with substrate ENLYFQS” value was found to be 0.0876.
Turning to MGESLFKGPRDYNPISSSICHLTNESDGHTTSLYGIGFGPFIITNKHLFRRNNGTLVVQSLHGVFKVKDTTTLQQGLVDGRDMIIIRMPKDFPPFPQKLKFREPQREERICLVTTNFQTKSMSSMVSDTSCTFPSGDGIFWKHWIQTKDGQCGSPLVSTRDGFIVGIHSASNFTNTNNYFTSVPKNFMELLTNQEAQQWVSGWRLNADSVLWGGHKVFMVKPEEPFQPVKEATQL [H76G], the “area with substrate ENLYFQH” value amounted to 0.0903, the “area with substrate ENLYFQL” value amounted to 0.0556, the “area with substrate ENLYFQM” value worked out at 0.101 and the “area with substrate ENLYFQN” value worked out at 0.0752. In addition, the “area with substrate ENLYFQS” value was found to be 0.11.
Consider MGESLFKGPRDYNPISSSICHLTNESDGHTTSLYGIGFGPFIITNKHLFRRNNGTLVVQSLHGVFKVKDTTTLQQHLVDGRDMIIIRMPKDKPPFPQKLKFREPQREERICLVTTNFQTKSMSSMVSDTSCTFPSGDGIFWKHWIQTKDGQCGSPLVSTRDGFIVGIHSASNFTNTNNYFTSVPKNFMELLTNQEAQQWVSGWRLNADSVLWGGHKVFMVKPEEPFQPVKEATQL [F92K], for which the “area with substrate ENLYFQH” value worked out at 0.0715, the “area with substrate ENLYFQL” value was 0.0601, the “area with substrate ENLYFQM” value is 0.0967 and the “area with substrate ENLYFQP” value was determined as 0.0472. For the same variant, the “area with substrate ENLYFQR” value was determined as 0.0335, the “area with substrate ENLYFQS” value stood at 0.105 and the “area with substrate ENLYFQV” value is 0.045.
Consider MGESLFKGPRDYNPISSSICHLTNESDGHTTSLYGIGFGPFIITNKHLFRRNNGTLVVQSLHGVFKVKDTTTLQQHLVDGRDMIIIRMPKDFPPFPQKLKFREPQREERICLVTTNFQTKSMSSMVSDTSCTFPSGDGIFWKHWIQTKDGQCGSPLVSTRDGFIVGIHSESNFTNTNNYFTSVPKNFMELLTNQEAQQWVSGWRLNADSVLWGGHKVFMVKPEEPFQPVKEATQL [A170E], for which the “area with substrate ENLYFQH” value worked out at 0.0667, the “area with substrate ENLYFQK” value came out at 0.0644, the “area with substrate ENLYFQM” value amounted to 0.0511 and the “area with substrate ENLYFQN” value amounted to 0.0549. Moreover, the “area with substrate ENLYFQR” value was 0.0465, the “area with substrate ENLYFQS” value came out at 0.0618, the “area with substrate ENLYFQT” value is 0.06 and the “area with substrate ENLYFQW” value is 0.0492.
With MGESLFKGPRDYNPISSSICHLTNESDGHTTSLYGIGFGPFIITNKHLFRRNNGTLVVQSLHGVFKVKDTTTLQQHLVDGRDMIIIRMPKSFPPFPQKLKFREPQREERICLVTTNFQTKSMSSMVSDTSCTFPSGDGIFWKHWIQTKDGQCGSPLVSTRDGFIVGIHSASNFTNTNNYFTSVPKNFMELLTNQEAQQWVSGWRLNADSVLWGGHKVFMVKPEEPFQPVKEATQL [D91S], the “area with substrate ENLYFQG” value came out at 0.133, the “area with substrate ENLYFQH” value stood at 0.0765, the “area with substrate ENLYFQI” value was determined as 0.0657 and the “area with substrate ENLYFQL” value was 0.0568. Moreover, the “area with substrate ENLYFQN” value worked out at 0.0821, the “area with substrate ENLYFQQ” value came to 0.119, the “area with substrate ENLYFQR” value was 0.0651 and the “area with substrate ENLYFQS” value came to 0.112. The “area with substrate ENLYFQT” value amounted to 0.0595, the “area with substrate ENLYFQV” value amounted to 0.0465 and the “area with substrate ENLYFQW” value is 0.113.
Consider MGESLFKGPRDYNPISSSICHLTNESDGHTTSLYGIGFGPFIITNKHLFRRNNGTLVVQSLHGVFKVKDTTTLQQHLVDGRDMIIIRMPKDFPPFPQKLKFREPQREERICLVTTNFQTKSMSSMVSDTSCTFPSGDGIFWKHWIQTKDGQCGSPLVSTRDGFIVGIHSASNFTNTNNYFTSVPKNFMELLTNQEAQQWVSGWRLNADYVLWGGHKVFMVKPEEPFQPVKEATQL [S209Y], for which the “area with substrate ENLYFQH” value turned out to be 0.0826, the “area with substrate ENLYFQN” value is 0.0775, the “area with substrate ENLYFQS” value worked out at 0.125 and the “area with substrate ENLYFQT” value was 0.0748. Besides, the “area with substrate ENLYFQY” value was 0.0996.
For the variant MGESLFKGPRDYNPISSSICHLTNESDGHTTSLYGIGFGPFIITNKHLFRRNNGTLVVQSLHGVFKVKDTTTLQQHLVDGRDMIIIRMPKDFPPFPQKLKFREPQNEERICLVTTNFQTKSMSSMVSDTSCTFPSGDGIFWKHWIQTKDGQCGSPLVSTRDGFIVGIHSASNFTNTNNYFTSVPKNFMELLTNQEAQQWVSGWRLNADSVLWGGHKVFMVKPEEPFQPVKEATQL [R106N], the “area with substrate ENLYFQG” value was determined as 0.0809, the “area with substrate ENLYFQH” value was 0.0877, the “area with substrate ENLYFQI” value is 0.0515 and the “area with substrate ENLYFQK” value was determined as 0.0654. Besides, the “area with substrate ENLYFQL” value amounted to 0.0435, the “area with substrate ENLYFQM” value was 0.0704, the “area with substrate ENLYFQQ” value was found to be 0.0584 and the “area with substrate ENLYFQS” value was found to be 0.0959. Moreover, the “area with substrate ENLYFQV” value is 0.064.
In the case of MGESLFKGPRDYNPISSSICHLTNESDGHTTSLYGIGFGPFIITNKHLFRNNNGTLVVQSLHGVFKVKDTTTLQQHLVDGRDMIIIRMPKDFPPFPQKLKFREPQREERICLVTTNFQTKSMSSMVSDTSCTFPSGDGIFWKHWIQTKDGQCGSPLVSTRDGFIVGIHSASNFTNTNNYFTSVPKNFMELLTNQEAQQWVSGWRLNADSVLWGGHKVFMVKPEEPFQPVKEATQL [R51N], the “area with substrate ENLYFQG” value came to 0.102, the “area with substrate ENLYFQL” value amounted to 0.058, the “area with substrate ENLYFQR” value was 0.0497 and the “area with substrate ENLYFQS” value stood at 0.1. The “area with substrate ENLYFQW” value is 0.0625 and the “area with substrate ENLYFQY” value worked out at 0.0898.
For MGESLFKGPRDYNPISSSICHLTNESDGHTTSLYGIGFGPFIITNKHLFRRNNGTLVVQSLHGVFKVKDTTTLQQHLVDGRDMIIIRMPKDFPPFPQKLKFREPQREERICLVTTNFQTKSMSSMVSDTSCTFPSGDGIFWKHWIQTKDGQCGSPLVSTRDGFIVGIHSASNFTNTNNYFTSVPKNFMELLTNQEAQQQVSGWRLNADSVLWGGHKVFMVKPEEPFQPVKEATQL [W199Q], the “area with substrate ENLYFQH” value worked out at 0.0518, the “area with substrate ENLYFQK” value is 0.0794, the “area with substrate ENLYFQP” value came to 0.0618 and the “area with substrate ENLYFQS” value was found to be 0.0672.
MGESLFKGPRDYNPISSSICHLTNESDGHTTSLYGIGFGPFIITNKHLFRRNNGTLVVQSLHGVFKVKDTTTLQQHLVDGRDMIIIRMPKDFPPFPQKLKFREPQREERICLVTTNFQTKSMSSMVSDTSCTFPSGDGIFWKHWIQTKDGQCGSPLVSTRDGAIVGIHSASNFTNTNNYFTSVPKNFMELLTNQEAQQWVSGWRLNADSVLWGGHKVFMVKPEEPFQPVKEATQL [F163A]: the “area with substrate ENLYFQG” value was determined as 0.0901, the “area with substrate ENLYFQK” value was determined as 0.0456, the “area with substrate ENLYFQN” value was found to be 0.0877 and the “area with substrate ENLYFQS” value was 0.109. Moreover, the “area with substrate ENLYFQY” value was determined as 0.083.
Take MGESLFKGPRDYNPISSSICHLTNESDGHTTSLYGIGFGPFIITNKHLFRRNNGTLVVQSLHGVFKVKDTTTLQQHLVDGRDMIIIRMPKDFPPFPQKLKFREPQREERICLVTTNFQTKSMSSMVSDTSCTFPSGDGIFWKHWIQTKDGQCGSPLVSTRDGFIVGIHSASNFTNTNNYFTSVPKNFMELLTNQEAQQWVSGWRLNADSVLWGGFKVFMVKPEEPFQPVKEATQL [H215F]: the “area with substrate ENLYFQH” value worked out at 0.0592, the “area with substrate ENLYFQI” value was 0.0378, the “area with substrate ENLYFQL” value was 0.0608 and the “area with substrate ENLYFQR” value was determined as 0.0628. Moreover, the “area with substrate ENLYFQS” value turned out to be 0.0848, the “area with substrate ENLYFQW” value was 0.0707 and the “area with substrate ENLYFQY” value came to 0.0603.
